This note sets out measurements from a collection of fitness landscapes (doi:10.1126/science.1257360).

The list shows a part of the results.

B1: PhoQ; a variant is named by its letters at X, in order, P23837 (parent)
chain: MKKLLRLFFPLSLRVRFLLATAAVVLVLSLAYGMVALIGYSVSFDKTTFRLLRGESNLFYTLAKWENNKLHVELPENIDKQSPTMTLIYDENGQLLWAQRDVPWLMKMIQPDWLKSNGFHEIEADVNDTSLLLSGDHSIQQQLQEVREDDDDAEMTHSVAVNVYPATSRMPKLTIVVVDTIPVELKSSYMVWSWFIYVLSANLLLVIPLLWVAAWWSLRPIEALAKEVRELEEHNRELLNPATTRELTSLVRNLNRLLKSERERYDKYRTTLTDLTHSLKTPLXXLQXXLRSLRSEKMSVSDAEPVMLEQISRISQQIGYYLHRASMRGGTLLSRELHPVAPLLDNLTSALNKVYQRKGVNISLDISPEISFVGEQNDFVEVMGNVLDNACKYCLEFVEISARQTDEHLYIVVEDDGPGIPLSKREVIFDRGQRVDTLRPGQGVGLAVAREITEQYEGKIVAGESMLGGARMEVIFGRQHSAPKDE

In this assay the parent is B1. Briefly: enrichment ratio after two sorts for PhoP signalling (ratio (wild type AVST 3.29)); higher = more functional. As to conditions: with PhoP (E. coli).
Take QGLL: the enrichment ratio is 10.4.
The same measure for NLFK: at most 0.25; for DHHR: at most 0.25; for MYMM: at most 0.25.
Take WCLG: the enrichment ratio was at most 0.25.
For the variant GFIC, the enrichment ratio is at most 0.25.
As for YCFA, the enrichment ratio is at most 0.25.
For the variant MISA, the enrichment ratio turned out to be 0.801.
Take GKYH: the enrichment ratio was at most 0.25.
As for HDHM, the enrichment ratio is at most 0.25.
As for TLPH, the enrichment ratio was at most 0.25.
The same measure for HNIM: at most 0.25; for CYLH: at most 0.25.
With DQNP, the enrichment ratio was at most 0.25.
As for RPAI, the enrichment ratio was at most 0.25.
Regarding SYEF, the enrichment ratio was at most 0.25.
As for DGFN, the figure is at most 0.25; as for NPHQ, at most 0.25; as for FICG, 1.01.
Take PIGS: the enrichment ratio is at most 0.25.
For MSDA, the enrichment ratio was at most 0.25.
Turning to QAKP, the enrichment ratio is at most 0.25.
As for MEGW, the enrichment ratio is at most 0.25.
The same measure for LPGG: at most 0.25; for SCPL: 7.57.
The same measure for QDVS: at most 0.25; for ISCY: at most 0.25.
For the variant YFWI, the enrichment ratio was at most 0.25.
Turning to HPGD, the enrichment ratio is at most 0.25.
Consider LRCD, for which the enrichment ratio is at most 0.25.
For the variant VYWD, the enrichment ratio was at most 0.25.
Take VACW: the enrichment ratio is at most 0.25.
Consider NEIW, for which the enrichment ratio is at most 0.25.
On to TNYV, for which the enrichment ratio is 0.521.
Take FRVL: the enrichment ratio is at most 0.25.
Consider IHSH, for which the enrichment ratio was at most 0.25.
With IINV, the enrichment ratio is at most 0.25.
Regarding VAEW, the enrichment ratio was at most 0.25.
As for YVNI, the figure is at most 0.25; as for KIFA, at most 0.25; as for NNMH, at most 0.25.
Turning to VDWP, the enrichment ratio was at most 0.25.
Consider EFMS, for which the enrichment ratio is at most 0.25.
As for MYTD, the figure is at most 0.25.
For KCRV, the enrichment ratio is at most 0.25.
As for WLRL, the enrichment ratio was at most 0.25.
Take SAKT: the enrichment ratio is at most 0.25.
As to IVRR, the enrichment ratio was at most 0.25.
The same measure for HWLW: at most 0.25; for MGLI: 14.4.
The same measure for MYKC: at most 0.25; for EQLY: at most 0.25; for WPVC: at most 0.25.
On to INMT, for which the enrichment ratio is 8.21.
Take AMSG: the enrichment ratio stood at 10.7.
In the case of KIPG, the enrichment ratio was at most 0.25.
On to KCHH, for which the enrichment ratio is at most 0.25.
In the case of THIY, the enrichment ratio is at most 0.25.
HCMS: the enrichment ratio was at most 0.25.
On to HTAL, for which the enrichment ratio is at most 0.25.
For the variant DALN, the enrichment ratio was at most 0.25.
Consider FPWN, for which the enrichment ratio was at most 0.25.
As for LIHY, the enrichment ratio was at most 0.25.
As to CKIH, the enrichment ratio is at most 0.25.
For GIHL, the enrichment ratio was at most 0.25.
In the case of FGHW, the enrichment ratio was at most 0.25.
In the case of MINN, the enrichment ratio was at most 0.25.
In the case of MQTH, the enrichment ratio was at most 0.25.
Regarding TRMV, the enrichment ratio came to 3.28.
Consider KSPT, for which the enrichment ratio was at most 0.25.
Regarding YMMR, the enrichment ratio was at most 0.25.
As for ITEN, the figure is at most 0.25; as for KGML, at most 0.25; as for PRCI, at most 0.25.
Take GCFQ: the enrichment ratio is at most 0.25.
The same measure for GGLP: at most 0.25; for SDWA: at most 0.25.
As to MIIV, the enrichment ratio is at most 0.25.
Consider ITER, for which the enrichment ratio is at most 0.25.
Consider KICM, for which the enrichment ratio is at most 0.25.
Turning to VSDQ, the enrichment ratio was at most 0.25.
With PTQS, the enrichment ratio is at most 0.25.
The same measure for NWLF: at most 0.25.
As to FINK, the enrichment ratio is at most 0.25.
With MFDR, the enrichment ratio is at most 0.25.
The same measure for DHDN: at most 0.25.
The same measure for IYEY: at most 0.25.
As to CFTS, the enrichment ratio is at most 0.25.
For LCNG, the enrichment ratio was at most 0.25.
Take GSVE: the enrichment ratio is at most 0.25.
As for DIAF, the figure is at most 0.25; as for FHDA, at most 0.25.
Consider VYFR, for which the enrichment ratio was at most 0.25.
For QKCY, the enrichment ratio was at most 0.25.
As for TWHR, the enrichment ratio is at most 0.25.
As for KKAY, the figure is at most 0.25.
The same measure for MACH: at most 0.25.
The same measure for IWWH: at most 0.25; for GPPY: at most 0.25.
Take MQRF: the enrichment ratio is at most 0.25.
The same measure for EFNY: at most 0.25; for HWQD: at most 0.25.
As for DLCS, the figure is at most 0.25; as for NCVR, at most 0.25.
As to YNHK, the enrichment ratio was at most 0.25.
As for ADFI, the enrichment ratio was at most 0.25.
Regarding YDLH, the enrichment ratio is at most 0.25.
For the variant RIGF, the enrichment ratio was at most 0.25.
Turning to STPD, the enrichment ratio is at most 0.25.
Consider ICMN, for which the enrichment ratio was 3.55.
As to CIAG, the enrichment ratio was at most 0.25.
For FSMG, the enrichment ratio is 4.8.
For the variant MYAM, the enrichment ratio is at most 0.25.
As for SVEK, the figure is at most 0.25.
AGFC: the enrichment ratio is at most 0.25.
Turning to VHVS, the enrichment ratio is at most 0.25.
Turning to TNSD, the enrichment ratio was 1.64.
SGLE: the enrichment ratio was 4.04.
For the variant SKWF, the enrichment ratio is at most 0.25.
On to DADP, for which the enrichment ratio is at most 0.25.
With DHQQ, the enrichment ratio was at most 0.25.
The same measure for SSSS: 11.1; for ETRT: at most 0.25.
As for ASTN, the figure is 6.56.
Regarding GSDQ, the enrichment ratio was at most 0.25.
Regarding GRHC, the enrichment ratio was at most 0.25.
On to TKDI, for which the enrichment ratio was at most 0.25.
The same measure for YTAI: at most 0.25; for NWCG: at most 0.25.
As for YNCV, the enrichment ratio was determined as 0.516.
As for HGSK, the figure is 0.39; as for AQCC, 32.6; as for YHSA, at most 0.25.
Regarding VGPC, the enrichment ratio is at most 0.25.
As to RYMQ, the enrichment ratio was 5.92.
For the variant GSMW, the enrichment ratio was at most 0.25.
TQNV: the enrichment ratio amounted to 14.2.
As for WRLQ, the figure is at most 0.25; as for QTCW, at most 0.25; as for ANAN, 4.98.
On to EPKR, for which the enrichment ratio was at most 0.25.
On to KDRD, for which the enrichment ratio is at most 0.25.
The same measure for QNSK: at most 0.25; for LYSD: at most 0.25.
As for GTVK, the enrichment ratio was at most 0.25.
With QDPI, the enrichment ratio is at most 0.25.
Regarding WQPK, the enrichment ratio is at most 0.25.
Turning to YKKP, the enrichment ratio was at most 0.25.
Turning to VEYP, the enrichment ratio was at most 0.25.
In the case of MSEK, the enrichment ratio was at most 0.25.
As for NHAE, the figure is at most 0.25.
With NMDN, the enrichment ratio is at most 0.25.
With EHSV, the enrichment ratio is at most 0.25.
